B1: CPEB3 Ribozyme (parent)
chain: UAACAGGGGGCCACAGCAGAAGCGUUCACGUCGCAGCCCCUGUCAGAUUCUGGUGAAUCUGCGAAUUCUGCUGUAUAUCUC

The source gives no read counts; variants with many changes may rest on few reads.

This series covers variants of B1. The series can be described thus: self-cleavage, relative activity (ratio to wild type); higher = more cleavage; in vitro, sequencing. Summed up: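 Libraries of CPEB3 self-cleaving ribozyme mutants came from rounds of error-prone PCR and carried barcodes, which DNA sequencing matched to variants. In vitro transcription used T7 RNA polymerase at 37°C for 5 hours, with a further 15 min in DNase I before EDTA stopped the reaction; the ribozymes cleaved during both steps. The RNA was reverse transcribed with template switching and sequenced on Illumina. Relative activity is the cleaved/total read fraction of a variant divided by that of the unmutated ribozyme, averaged over three batches with at least 5 reads.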
In the case of U31A A45U U72C, the self-cleavage was found to be 0.27.
With C29U G53C A64G U72C U76A the figure was 0.44.
For the variant A28G U67C U72C, the self-cleavage was 0.18.
In the case of A28U U31C U67A, the self-cleavage was 0.35.
For the variant A28G U41C G53A A56G, the self-cleavage came out at 0.31.
Take C27U U58C C68U: the self-cleavage is 0.09.
Turning to C27U A35G U66C U80C, the self-cleavage was determined as 0.32.
With A28G U60C U67A, the self-cleavage was 0.06.
As for C29U C34U U43C U48C, the self-cleavage was determined as 0.15.
On to A28G U48C A64G, for which the self-cleavage amounted to 0.
On to A28G U58C U69C U78C, for which the self-cleavage worked out at 0.13.
With A28U U41C A57G U72A the figure was 0.29.
With A28G U54C U58A A65G the figure was 0.07; with A28C U54A U67C, 0.12; with A28U A56G A65U U66C U80A, 0.25.
As to U31A A45G U58C, the self-cleavage was found to be 0.08.
In the case of C29U C59A G73A, the self-cleavage amounted to 0.29.
The result for C29A U58A U60A A64C U78A reads 0.14; that for A28G C40U A57G U58C, 0.1.
The result for A28U U41C U80C reads 1.16; that for A28G A47G U80A, 0.94.
With A28G A35G U67C A77U the figure was 0.16; with C29U A35U U54C, 0.2; with A28U U72A A77U, 0.13.
With A28G U41C A45U A64U U67C, the self-cleavage is 0.11.
With A28U U69C U72C the figure was 0.2; with C29A A35G A65G, 0.38.
C29U C34U U43C U48C U51A: the self-cleavage amounted to 0.1.
Turning to A28G G42A U48C A57G, the self-cleavage amounted to 0.17.
Regarding C27U A35U G53C U60C, the self-cleavage was 0.12.
The result for A28G C38U U43C A47G U67C reads 0.15; that for A28U U51C A56G, 0.38; that for A28G C40A A45G, 0.19.
The result for A28G A45G U48A reads 0.14.
As to C29U A47G U78C C81A, the self-cleavage came out at 0.6.
The result for A28C A47G U60A U66A reads 0.18.
On to A28U U54A U60C U76C, for which the self-cleavage was found to be 0.36.
Turning to U31A A35U U43C U66A U74C, the self-cleavage amounted to 0.09.
With A28U G42A A77G the figure was 0.27; with A28U C29G U69C, 0.14; with G30U U31A A47G, 0.33.
As for U31A A45U G63U, the self-cleavage was 0.59.
G30C U48G U74C: the self-cleavage was determined as 0.15.
With A28U G33A U49C A56C U60C A64G the figure was 0.07.
The result for G30A U31C U69G U74C A75U reads 0.13; that for A28G U48C A56U U80A, 0.16.
Turning to A28C A56U A57G, the self-cleavage turned out to be 0.11.
The result for A28U A47G U72C reads 0.45.
With A28G A56G U78C the figure was 0.31.
The result for G30C A35G U43C U54A reads 0.15; that for C27U A35G U43A C71G U74C U80C, 0.1; that for A28C U49C U78C, 0.13.
With A28U U43C G63U, the self-cleavage was found to be 0.79.
With C29U C39A U60C G61A, the self-cleavage is 0.08.
On to A28U U43C U60A, for which the self-cleavage is 0.08.
The result for G30A U48C U60C U74C U78C reads 0.12; that for C29A C34U G42A U51G, 0.06; that for A28G U60A A64U, 0.11.
On to C29U C40U U60C, for which the self-cleavage came to 0.19.
As to C29U A35U A47G U72C, the self-cleavage stood at 0.14.
Regarding G30U U66C U72C, the self-cleavage came out at 0.13.
With A28G U43G U54C U60C C62U U69C the figure was 0.15.
With A28U G30U A45G A56G U69C the figure was 0.05.
In the case of A28G U43C U58C A77G, the self-cleavage was found to be 0.11.
With A28G C50A A56C the figure was 0.55; with A28U A35U U51A A57G U72A, 0.09; with A28U A35U A65G, 0.4.
The result for A28G C34U U74G reads 0.29.
With C29A U41C A64G the figure was 0.52; with C29U A65G U80C, 0.17; with A28G U41C A47G, 0.72.
For the variant A28U U51A U54A, the self-cleavage worked out at 0.95.
The result for G30A C37U A45G reads 0.4.
With A28G U41G U51A the figure was 0.45; with A28U U41C U48C U58A C71U U78C, 0.07.
Regarding A28G U51A U78C, the self-cleavage is 0.46.
The result for A28G A35C U74C reads 0.68; that for A28U U48C U49C U76C, 0.19.
As to G30U A35G A56U U78C, the self-cleavage came out at 0.06.
With A28C C40U G55A A56G A65G, the self-cleavage turned out to be 0.05.
With A28G C40U A64U the figure was 0.12; with C29U U72A U80C, 0.82; with G30U C32G A56G U60C U80C, 0.15.
On to A28G C29U G42A U43G U58C, for which the self-cleavage came out at 0.27.
With U31A A35C U48C, the self-cleavage worked out at 0.17.
Take A28G U41A A45U A56U U69C: the self-cleavage worked out at 0.13.
With A28G U41C A75G the figure was 0.43; with A28G A64U U74C U78C, 0.39; with C29A G52C U54A C71A G73C, 0.11.
Turning to A28U A45U U48A A56G U60C G70C U72C, the self-cleavage is 0.02.
In the case of C29G C37U A45G, the self-cleavage was 0.17.
The result for A28C C50A U51A G63A reads 0.17.
The result for A28G A64U U72C reads 0.2; that for A28G C37A U69G, 0.09.
As for C27U U54A U78C, the self-cleavage was 0.16.
As to A28C C40U C81G, the self-cleavage was determined as 0.15.
In the case of G30C U49A A56U, the self-cleavage is 0.16.
With C29U A45G U76C the figure was 0.42; with G30A U69C A77G U80A, 0.36.
The result for A28U A35G U78C reads 1.26; that for A28U A64G U80C, 0.85.
The result for U31A A45U G53U U80C reads 0.38.
On to C29A A57G U69C U74C, for which the self-cleavage was determined as 0.2.
A28G U41C U72C: the self-cleavage came to 0.74.
With U31A A45U U48C A64G the figure was 0.14; with A28G U31A U49C U54C U60A, 0.07; with A28G U41C U67A, 0.34.
A28U A35G U41C U76A: the self-cleavage amounted to 1.19.
The result for A28G A57G U80A reads 0.72.
The result for A28G U31C A45U A56C reads 0.17.
For C29U U48C U66C U80C, the self-cleavage amounted to 0.33.
The result for A28U U41C G52A reads 0.94; that for G30A U51A U74G A75U, 0.25.
As to A28U U41C A47G U60C, the self-cleavage stood at 0.21.
For the variant C27G G42A U51C G61A, the self-cleavage turned out to be 0.19.
In the case of A28U C38A U43C U51A G61A, the self-cleavage was 0.12.
For U31A A45C A56G U67C, the self-cleavage stood at 0.11.
With A28G A35G C39A U41C A77G the figure was 0.55; with C29U U41C A75G, 0.38.
Regarding G30A U41C A47G U72A, the self-cleavage was 0.07.
The result for A28U U31C G42U U48C A56G U69C U80A reads 0.05; that for A28C U31C A57G, 0.36.
The result for A28G U43C U49C U69C U80C reads 0.35; that for A28U A45G U54C, 0.41; that for C29A U51A G70A, 0.12.
Take A28G U49C U69G U72A: the self-cleavage amounted to 0.12.
Turning to G30A G53A U60A, the self-cleavage is 0.2.
With A28G U60A U69C the figure was 0.25.
With A28G C29G C44U U48C U51A G52U U67C the figure was 0.03; with C29U C32A A45G, 0.07.
For the variant A28G A57C U76C, the self-cleavage worked out at 0.11.
The result for A28U G46C U48C G52A U72A U80C reads 0.17; that for A28U A35G U54G, 1.21; that for A28U A35G G36A A56G U74C, 0.43.
The result for C29G A45G C68A reads 0.17; that for G30U U60C G63A, 0.2; that for A28C A35G U69C U72A, 0.24.
As for C29U A57G U80C, the self-cleavage was determined as 0.44.
With A28G A35U U51A the figure was 0.24; with A28G A35G U66C U74A, 0.51.
The result for A28G C40U U60C A64G U78C reads 0.12.
With G30A U49C U69A U76G the figure was 0; with A28C U41C A57U, 0.23.
Take C27U U41C A75U U76C: the self-cleavage was 0.27.
With A28U U31A U67C the figure was 0.15; with C29A U41A A45U A47G U80C, 0.11; with A28G U43C U76C, 0.33.
With C29A A47G U51G the figure was 0.59; with C29U U41A C44G U48C A57G U78A, 0.13.
The result for A28G U54C C68A A75U reads 0.12; that for A28G C71G U76C, 0.11; that for A28C A45U U49C U51A A65G U72C, 0.02.
Turning to G30A U67C C81U, the self-cleavage is 0.08.
Take C27U U31A A35U U67G G70C: the self-cleavage was 0.04.
For G30A U43C A45U A47G U69C, the self-cleavage was found to be 0.11.
Turning to A28U A35G A47G U54C U74A, the self-cleavage worked out at 1.25.
A28G C38U A47U U49G U80C: the self-cleavage was determined as 0.09.
C29A U48C A65G U78A: the self-cleavage was 0.06.
Turning to A28U U51C U72A, the self-cleavage is 0.5.
The result for A28C C40A C59A reads 0.12; that for A28U A45G A57G, 0.31; that for C29U U31A A56U, 0.18.
For A28G U41C C59U G63U U66A U80C, the self-cleavage was found to be 0.17.
The result for A28G A56U A64G reads 0.16.
The result for A28G C39G U41C U51C reads 0.06.
Regarding A28G A35G U43C U60C, the self-cleavage came to 0.36.
The result for C29U U54C A56G U60A G63U A64G U80A reads 0.15.

These data come from the RNAGym collection of RNA variant scans (doi:10.1093/nar/gkz1192).
